# Results from the supplement of paper PMC3334620.
# In all, about 33,000 sequences were measured (“E-score (-0.5 to 0.5)”: median about -0.041, highest 2% from about 0.37 on). The list shows a part of the results.
# Target: T1, Ecm22 (UniProt Q05958)
# T1 sequence: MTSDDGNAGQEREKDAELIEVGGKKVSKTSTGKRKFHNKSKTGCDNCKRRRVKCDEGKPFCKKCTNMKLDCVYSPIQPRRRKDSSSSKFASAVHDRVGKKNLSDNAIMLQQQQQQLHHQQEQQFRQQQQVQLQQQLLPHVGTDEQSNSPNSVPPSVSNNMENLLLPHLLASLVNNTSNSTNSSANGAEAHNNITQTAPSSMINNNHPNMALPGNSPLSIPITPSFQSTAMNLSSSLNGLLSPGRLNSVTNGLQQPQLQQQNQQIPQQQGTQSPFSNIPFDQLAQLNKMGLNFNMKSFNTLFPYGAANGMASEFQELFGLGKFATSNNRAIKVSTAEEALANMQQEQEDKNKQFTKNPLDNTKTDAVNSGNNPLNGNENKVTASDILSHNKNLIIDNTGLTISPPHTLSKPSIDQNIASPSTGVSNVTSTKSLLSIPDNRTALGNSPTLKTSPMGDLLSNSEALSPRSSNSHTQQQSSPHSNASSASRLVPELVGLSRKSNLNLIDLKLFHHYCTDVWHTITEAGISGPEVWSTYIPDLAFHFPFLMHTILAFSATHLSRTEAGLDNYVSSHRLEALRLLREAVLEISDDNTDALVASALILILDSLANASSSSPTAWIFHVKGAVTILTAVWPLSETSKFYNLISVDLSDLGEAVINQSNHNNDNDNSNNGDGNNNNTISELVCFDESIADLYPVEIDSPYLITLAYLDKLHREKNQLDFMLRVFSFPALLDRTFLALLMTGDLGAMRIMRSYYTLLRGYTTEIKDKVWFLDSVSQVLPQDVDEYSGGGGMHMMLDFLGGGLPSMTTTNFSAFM
# Assay: PBM E-score (8-mer binding enrichment) (E-score (-0.5 to 0.5)); higher = stronger / more preferred TF binding; most listed sequences are background and not binding sites
# Settings: protein concentration: 200 nM; construct: GST-full length
# In short: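 Masliner-normalised scans of fluorescent anti-GST signal were the basis for scoring. That signal came from GST-tagged yeast transcription factors applied at about 100-200 nM to double-stranded universal all-10-mer Agilent arrays on fresh or once-stripped slides. Each ungapped eight-base word, pooled with its reverse complement, received an E-score from the Universal PBM Analysis Suite.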
row,Sequence,PBM E-score
1,CGATTAAG,0.186
2,CACCCTAG,-0.183
3,AATAGATT,0.00083
4,AAGATACT,0.0297
5,AATGTGGC,0.00744
6,ACCCTCAG,-0.221
7,GCGAGCGA,0.31
8,ATCGCATG,0.0945
9,AACAAGGT,-0.127
10,ATAAATTC,0.0271
11,CCGCACTC,0.123
12,AAGTCTAC,-0.102
13,CCACACCC,0.0227
14,CATGATCG,0.0415
15,GCCCCAGA,-0.144
16,CAGGCTAC,-0.0932
17,CGCATATC,0.194
18,CTGGTCAC,-0.133
19,TACTCCCA,-0.0809
20,ACCGGACA,-0.108
21,CGGCTAGA,0.0578
22,ACGTGGAC,-0.0623
23,AGGAGTTG,0.0179
24,CAAAGCCC,-0.108
25,AACCTTCA,-0.245

row,Sequence,PBM E-score
1,AAGCATAT,0.00872
2,AGCCTACC,-0.109
3,GCAATAAA,0.0544
4,CGTGTCGA,0.0968
5,AATATACG,0.461
6,CATAACTC,-0.0649
7,CAGGCAAC,-0.0655
8,CGGAATCA,-0.132
9,CACGTATG,0.0729
10,GGCCTTCA,-0.191
11,AAATGGAG,0.0162
12,CGTACCGC,0.47
13,AACCGACA,0.269
14,CAATTTGG,-0.136
15,ACACGGGA,0.0892
16,GCTTGTCA,0.0156
17,CTCCCACA,-0.196
18,AACACTTC,-0.00826
19,ACCACCCT,-0.105
20,ATCGGCAC,-0.0226
21,CTATGGGC,-0.243
22,CCCCGCGC,0.00461
23,GCCCGGGA,-0.159
24,GTCGCGGA,0.00957
25,CAAGCATA,-0.101

row,Sequence,PBM E-score
1,CTATAATA,-0.113
2,AGGGGTAT,-0.191
3,GCATAGGC,-0.178
4,CACATCCA,-0.0496
5,AACATAGC,-0.2
6,CCAAATAC,-0.0979
7,ACAACACT,0.116
8,ACGCCGTA,0.307
9,GGATGTTA,-0.122
10,CTTGCAGA,-0.122
11,CTCGGAAA,0.276
12,CCCTCTTA,-0.128
13,AAGGCTTG,-0.162
14,CAACGTAC,0.221
15,CGATAGCG,0.128
16,ACTAAATA,0.0746
17,CCAGCGGA,-0.124
18,ACGCATGC,0.128
19,TCCTTGAA,-0.0614
20,AGGGTTCG,0.0129
21,TATTGACA,-0.0652
22,CCAGGTCC,-0.192
23,ACGGATAT,0.176
24,CTCTCACC,-0.0965
25,GTTATCTA,0.0357

row,Sequence,PBM E-score
1,CGACATCG,0.25
2,ACAGCCCT,-0.279
3,GACCAGCA,-0.0703
4,AACACCGT,0.16
5,AATTAGCT,0.0861
6,GCCCCCCC,-0.174
7,AGCGCGAA,0.09
8,CTGCGGAA,-0.0657
9,GATATTCA,-0.102
10,GTGTTATA,0.143
11,CCAAAAAG,-0.283
12,ACCACGGG,-0.0797
13,AATTTTAC,0.134
14,ACATTAAG,-0.113
15,CCCGCCGA,-0.091
16,ACCGGTTA,0.15
17,GTTGGGTA,-0.00422
18,CCCAAGGC,-0.0365
19,GGAGGCTA,-0.234
20,ATAATCGC,0.12
21,CAGATGCA,-0.287
22,AACCACGA,-0.02
23,CATAACCC,-0.0625
24,GAATTGTA,0.0977
25,CTTGCAAA,-0.00195

row,Sequence,PBM E-score
1,AGAAACAA,-0.0295
2,CCGTGGCG,-0.101
3,ATACAGAA,0.0274
4,CATGGCGG,-0.188
5,CCTTAAAG,-0.217
6,AGCTGGTG,-0.101
7,CATTTAGG,-0.192
8,GCTTCGGA,0.121
9,CAAGTTCA,-0.0478
10,GATTATGA,0.106
11,CTGCAGAA,0.116
12,CCGTTCGA,0.152
13,CGCGGCTC,0.106
14,GAGTACTC,-0.129
15,GCAGTGTA,-0.0155
16,AGGAGCCA,-0.181
17,AACACTCA,0.113
18,TGGTGGAA,0.0476
19,ACAGGCCG,-0.101
20,AGATACTC,-0.0181
21,ACTGACGA,0.143
22,AGTCTCCG,0.0836
23,AAGGACAT,-0.105
24,GCTGCCAC,-0.254
25,GAAAAATA,0.0115

row,Sequence,PBM E-score
1,ACCAGCTC,-0.021
2,CGTCAACG,0.0717
3,TAAGTTAA,-0.196
4,ACATCGCG,0.129
5,GATTGTGC,0.0123
6,CCTGCCGC,-0.0288
7,TCGGTAAA,0.307
8,ACCTTTTA,0.00442
9,ATCCTTTG,0.00792
10,CCGCCGCG,0.0848
11,GATCGGCC,-0.0198
12,CACTTTTC,-0.13
13,GTATGCAC,0.0586
14,AAAATCCT,0.0832
15,ATGCCCGG,-0.118
16,CCTGGATA,-0.0636
17,CGTGTACA,0.058
18,CACTTTAA,0.0363
19,CCTAGACG,-0.0473
20,CTAATTTA,0.0682
21,CACTGCAG,-0.289
22,ATACCACG,0.157
23,AGATTCGC,0.141
24,ATGGCGTG,-0.0369
25,GAAAGCGC,0.0447

row,Sequence,PBM E-score
1,GAACCTTC,-0.126
2,GTAAAAGA,0.122
3,ACCAAAGT,-0.114
4,AACCAGTG,-0.216
5,CGAAGCAG,0.147
6,ACAGCTGG,-0.0911
7,TTCCTCAA,-0.223
8,TGAGCTCA,-0.0237
9,CACATGTG,-0.09
10,CATCAACA,-0.00088
11,AATGTCCG,0.127
12,AGACTGGA,-0.184
13,AGTTACTG,-0.00284
14,CCCTCAGG,-0.145
15,ACTGAAAT,-0.173
16,ATGATGTC,-0.0748
17,AGAAATGG,-0.113
18,CCTGGCTA,0.0196
19,CACAAGGC,-0.268
20,CAGGAGTC,-0.2
21,AACGTGGC,0.029
22,CGATCCGC,0.202
